Where two headings read alike, the source gives them in different places. Some results were stated once for a whole list of compounds, not compound by compound.
Columns and labels:
Assay type in all cases: biochemical
K-Ras G12C = K-Ras G12C (Homo sapiens, UniProt P01116+P62937, G12C)
NRAS G12C = NRAS G12C (Homo sapiens, UniProt P01111+P62937, G12C); experiment: Ras-RAF disruption TR-FRET/MOA assay, NRAS G12C; conditions: Table 14. NRAS G12C FRET data
NRAS Q61R = NRAS Q61R (Homo sapiens, UniProt P01111+P62937, Q61R); experiment: Ras-RAF disruption TR-FRET/MOA assay, NRAS Q61R; conditions: Table 15. NRAS Q61R FRET data
NRAS Q61R, sequence (P01111 whole entry Q61R): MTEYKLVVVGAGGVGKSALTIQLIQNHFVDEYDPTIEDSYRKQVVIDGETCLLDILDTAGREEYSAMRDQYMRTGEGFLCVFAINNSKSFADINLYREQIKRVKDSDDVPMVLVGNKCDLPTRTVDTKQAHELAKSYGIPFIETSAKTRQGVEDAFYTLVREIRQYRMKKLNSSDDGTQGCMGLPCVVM
NRAS Q61R, sequence (P62937 whole entry): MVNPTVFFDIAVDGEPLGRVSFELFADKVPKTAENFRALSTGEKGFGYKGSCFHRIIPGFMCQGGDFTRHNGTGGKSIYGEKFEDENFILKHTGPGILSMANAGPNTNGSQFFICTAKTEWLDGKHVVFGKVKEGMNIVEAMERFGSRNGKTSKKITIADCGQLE

[1] = Table 11; read-out: KRAS G12C FRET data, IC50

K-Ras G12C, sequence (P01116 1-169 isoform P01116-2 G12C): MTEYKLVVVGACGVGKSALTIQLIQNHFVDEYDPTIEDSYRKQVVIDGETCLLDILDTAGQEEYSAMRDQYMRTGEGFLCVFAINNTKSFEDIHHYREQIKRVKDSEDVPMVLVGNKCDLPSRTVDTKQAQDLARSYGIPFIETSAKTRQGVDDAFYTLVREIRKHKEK
K-Ras G12C, sequence (P62937 whole entry): as the sequence (P62937 whole entry) above
NRAS G12C, sequence (P01111 whole entry G12C): as the sequence (P01111 whole entry Q61R) above, with G12C, R61Q counted along it
NRAS G12C, sequence (P62937 whole entry): as the sequence (P62937 whole entry) above

For `C=CC(=O)Nc1cnc(C(=O)N(C)[C@H](C(=O)N[C@H]2Cc3cccc(c3)-c3ccc4c(c3)c(c(-c3cccnc3[C@H](C)OC)n4CC)CC(C)(C)COC(=O)[C@@H]3CCCN(N3)C2=O)C(C)C)n1C` (atropisomer, axis not shown) [Compound A525], the IC50 (K-Ras G12C; [1]) was 10 to 100 nM and the IC50 (NRAS G12C) was 10 to 100 nM.

`CCn1c(-c2cccnc2[C@H](C)OC)c2c3cc(ccc31)-c1cccc(c1)C[C@H](NC(=O)[C@H](C(C)C)N(C)C(=O)N1CCC13CN(C(=O)C#CC(C)(C)N(C)C)C3)C(=O)N1CCC[C@H](N1)C(=O)OCC(C)(C)C2` [Compound A672] showed an IC50 (K-Ras G12C; [1]) of 10 to 100 nM and an IC50 (NRAS G12C) of 10 to 100 nM.

`CO[C@@H](C)c1ncccc1-c1c2c3cc(ccc3n1CC(F)(F)F)-c1cc(cc(C(F)F)c1)C[C@H](NC(=O)[C@@H](COC1CN(C(=O)C#CC(C)(C)N(C)C)C1)C(C)C)C(=O)N1CCC[C@H](N1)C(=O)OCC(C)(C)C2` (atropisomer, axis not shown) [Compound A374] was tested, and the IC50 (K-Ras G12C; [1]) was 100 to 1000 nM and the IC50 (NRAS G12C) was 100 to 1000 nM.

For `CCn1c(-c2cccnc2[C@H](C)OC)c2c3cc(ccc31)-c1csc(n1)C[C@H](NC(=O)[C@@H](COC1CN(C(=O)C#CC(C)(C)N(C)C)C1)C(C)C)C(=O)N1CCC[C@H](N1)C(=O)OCC(C)(C)C2` (atropisomer, axis not shown) [Compound A721], the IC50 (K-Ras G12C; [1]) was less than 10 nM and the IC50 (NRAS G12C) was less than 10 nM.

For `CCn1c(-c2cccnc2[C@H](C)OC)c2c3cc(ccc31)-c1cc(O)cc(c1)C[C@H](NC(=O)[C@H](C(C)C)N(C)C(=O)[C@H]1CCN(C(=O)/C=C/CN(C)C)C1)C(=O)N1CCC[C@H](N1)C(=O)OCC(C)(C)C2` (atropisomer, axis not shown) [Compound A183], the IC50 (K-Ras G12C; [1]) was less than 10 nM and the IC50 (NRAS G12C) was less than 10 nM.

`CCn1c(-c2cccnc2[C@H](C)OC)c2c3cc(ccc31)N1CCC[C@@H](C[C@H](NC(=O)[C@@H](COC3CN(C(=O)C#CC(C)(C)N(C)C)C3)C(C)C)C(=O)N3CCC[C@H](N3)C(=O)OCC(C)(C)C2)C1` (atropisomer, axis not shown) [Compound A715, (2R)-2-(((1-(4-(dimethylamino)-4-methylpent-2-ynoyl)azetidin-3-yl)oxy)methyl)-N-((2^3S,6^3S,4S)-1^1-ethyl-1^2-(2-((S)-1-methoxyethyl)pyridin-3-yl)-10,10-dimethyl-5,7-dioxo-6^1,6^2,6^3,6^4,6^5,6^6-hexahydro-1^1H-8-oxa-1(5,3)-indola-6(1,3)-pyridazina-2(1,3)-piperidinacycloundecaphane-4-yl)-3-methylbutanamide] gave an IC50 (K-Ras G12C; [1]) of 10 to 100 nM and an IC50 (NRAS G12C) of 10 to 100 nM.

Compound `C=CC(=O)N1CC(OC[C@H](C(=O)N[C@H]2Cc3cc(cc(C(F)F)c3)-c3ccc4c(c3)c(c(-c3cccnc3[C@H](C)OC)n4CC)CC(C)(C)COC(=O)[C@@H]3CCCN(N3)C2=O)C(C)C)C1` (atropisomer, axis not shown) [Compound A345] has an IC50 (K-Ras G12C; [1]) of 1000 to 10000 nM and an IC50 (NRAS G12C) of 1000 to 10000 nM.

`CCn1c(-c2cccnc2[C@H](C)OC)c2c3cc(ccc31)N1CCO[C@@H](C[C@H](NC(=O)[C@@H](COC3CCN(C(=O)C#CC(C)(C)N(C)C)CC3)C(C)C)C(=O)N3CCC[C@H](N3)C(=O)OCC(C)(C)C2)C1` (atropisomer, axis not shown) [Compound A643, (2R)-2-(((1-(4-(dimethylamino)-4-methylpent-2-ynoyl)piperidin-4-yl)oxy)methyl)-N-((2^2S,6^3S,4S)-1^1-ethyl-1^2-(2-((S)-1-methoxyethyl)pyridin-3-yl)-10,10-dimethyl-5,7-dioxo-6^1,6^2,6^3,6^4,6^5,6^6-hexahydro-1^1H-8-oxa-2(4,2)-morpholina-1(5,3)-indola-6(1,3)-pyridazinacycloundecaphane-4-yl)-3-methylbutanamide] was tested, and the IC50 (K-Ras G12C; [1]) was 10 to 100 nM and the IC50 (NRAS G12C) was 10 to 100 nM.

In the case of `CCn1c(-c2cccnc2[C@H](C)OC)c2c3cc(ccc31)-c1csc(n1)C[C@H](NC(=O)CCOC1CN(C(=O)C#CC(C)(C)N(C)C)C1)C(=O)N1CCC[C@H](N1)C(=O)OCC(C)(C)C2` (atropisomer, axis not shown) [Compound A427, 3-((1-(4-(dimethylamino)-4-methylpent-2-ynoyl)azetidin-3-yl)oxy)-N-((6^3S,4S,Z)-1^1-ethyl-1^2-(2-((S)-1-methoxyethyl)pyridin-3-yl)-10,10-dimethyl-5,7-dioxo-6^1,6^2,6^3,6^4,6^5,6^6-hexahydro-1^1H-8-oxa-2(4,2)-thiazola-1(5,3)-indola-6(1,3)-pyridazinacycloundecaphane-4-yl)propanamide], the IC50 (K-Ras G12C; [1]) is reported as less than 10 nM, the IC50 (NRAS G12C) is reported as less than 10 nM and the IC50 (NRAS Q61R) is reported as greater than 10000 nM.

For `C=CC(=O)N1CC(OC[C@H](C(=O)N[C@H]2Cc3cccc(c3)-c3ccc4c(c3)c(c(-c3cccnc3[C@H](C)OC)n4CC(F)(F)F)CC(C)(C)COC(=O)[C@@H]3CCCN(N3)C2=O)C(C)C)C1` (atropisomer, axis not shown) [Compound A344], the IC50 (K-Ras G12C; [1]) was 10 to 100 nM and the IC50 (NRAS G12C) was 10 to 100 nM.

`CCn1c(-c2cccnc2[C@H](C)OC)c2c3cc(ccc31)-c1cccc(c1)C[C@H](NC(=O)[C@@H](COC1CN(C(=O)C#CC(C)(C)N3CCC3)C1)C(C)C)C(=O)N1CCC[C@H](N1)C(=O)OCC(C)(C)C2` (atropisomer, axis not shown) [Compound A346] was tested, and the IC50 (K-Ras G12C; [1]) was less than 10 nM and the IC50 (NRAS G12C) was 10 to 100 nM.

In the case of `CCn1c(-c2cccnc2[C@H](C)OC)c2c3cc(ccc31)-c1cc(F)cc(c1)C[C@H](NC(=O)[C@@H](COC1CN(C(=O)C#CC(C)(C)N(C)C)C1)C(C)C)C(=O)N1CCC[C@H](N1)C(=O)OCC(C)(C)C2` (atropisomer, axis not shown) [Compound A403], the IC50 (K-Ras G12C; [1]) is reported as less than 10 nM and the IC50 (NRAS G12C) is reported as 10 to 100 nM.

In the case of `CCn1c(-c2cccnc2COC)c2c3cc(ccc31)-c1cc(O)cc(c1)C[C@H](NC(=O)[C@H](C(C)C)N(C)C(=O)[C@H]1CCN(C(=O)/C=C\CN(C)C)C1)C(=O)N1CCC[C@H](N1)C(=O)OCC(C)(C)C2` [Compound A161], the IC50 (K-Ras G12C; read-out: KRAS G12C FRET data, IC50; Table 11) is reported as 100 to 1000 nM.

`C=CC(=O)N1CC(OC[C@H](C(=O)N[C@H]2Cc3cc(F)cc(c3)-c3ccc4c(c3)c(c(-c3cccnc3[C@H](C)OC)n4CC(F)(F)F)CC(C)(C)COC(=O)[C@@H]3CCCN(N3)C2=O)C(C)C)C1` (atropisomer, axis not shown) [Compound A725] gave an IC50 (K-Ras G12C; [1]) of 100 to 1000 nM and an IC50 (NRAS G12C) of 100 to 1000 nM.

Work on `CCn1c(-c2cccnc2COC)c2c3cc(ccc31)-c1cc(O)cc(c1)C[C@H](NC(=O)[C@H](C(C)C)N(C)C(=O)[C@H]1CCN(C(=O)C#CCOC)C1)C(=O)N1CCC[C@H](N1)C(=O)OCC(C)(C)C2` (atropisomer, axis not shown) [Compound A135] yielded an IC50 (K-Ras G12C; [1]) of less than 10 nM and an IC50 (NRAS G12C) of less than 10 nM.

`CCn1c(-c2cccnc2[C@H](C)OC)c2c3cc(ccc31)-c1cccc(c1)C[C@H](NC(=O)[C@H](C(C)C)N(C)C(=O)[C@H]1CCN(C(=O)/C=C/C(F)F)C1)C(=O)N1CCC[C@H](N1)C(=O)OCC(C)(C)C2` (atropisomer, axis not shown) [Compound A485] showed an IC50 (K-Ras G12C; [1]) of 10 to 100 nM and an IC50 (NRAS G12C) of 10 to 100 nM.

`CCn1c(-c2cccnc2[C@H](C)OC)c2c3cc(ccc31)-c1cccc(c1)C[C@H](NC(=O)[C@H](C(C)C)N(C)C(=O)[C@H]1CCN(C(=O)C#CCN(C)C)C1)C(=O)N1CCC[C@H](N1)C(=O)OCC(C)(C)C2` (atropisomer, axis not shown) [Compound A121] showed an IC50 (K-Ras G12C; [1]) of less than 10 nM and an IC50 (NRAS G12C) of less than 10 nM.

Compound `CCn1c(-c2cccnc2[C@H](C)OC)c2c3cc(ccc31)N1CCO[C@@H](C[C@H](NC(=O)[C@@H](COC3CN(C(=O)C#CC(C)(C)N(C)C)C3)C(C)C)C(=O)N3CCC[C@H](N3)C(=O)OCC(C)(C)C2)C1` (atropisomer, axis not shown) [Compound A377, (2R)-2-(((1-(4-(dimethylamino)-4-methylpent-2-ynoyl)azetidin-3-yl)oxy)methyl)-N-((2^2S,6^3S,4S)-1^1-ethyl-1^2-(2-((S)-1-methoxyethyl)pyridin-3-yl)-10,10-dimethyl-5,7-dioxo-6^1,6^2,6^3,6^4,6^5,6^6-hexahydro-1^1H-8-oxa-2(4,2)-morpholina-1(5,3)-indola-6(1,3)-pyridazinacycloundecaphane-4-yl)-3-methylbutanamide] has an IC50 (K-Ras G12C; [1]) of less than 10 nM and an IC50 (NRAS G12C) of less than 10 nM.

For `CCn1c(-c2cccnc2[C@H](C)OC)c2c3cc(ccc31)-c1cccc(c1)C[C@H](NC(=O)[C@@H](COC1CN(C(=O)C#C[C@H]3COCCN3C)C1)C(C)C)C(=O)N1CCC[C@H](N1)C(=O)OCC(C)(C)C2` (atropisomer, axis not shown) [Compound A644], the IC50 (K-Ras G12C; [1]) was 10 to 100 nM and the IC50 (NRAS G12C) was 10 to 100 nM.

`CCn1c(-c2cccnc2[C@H](C)OC)c2c3cc(ccc31)-c1cccc(c1)C[C@H](NC(=O)[C@H](C(C)C)N(C)C(=O)[C@H]1CCN(C(=O)/C=C/CF)C1)C(=O)N1CCC[C@H](N1)C(=O)OCC(C)(C)C2` [Compound A449] was tested, and the IC50 (K-Ras G12C; [1]) was 100 to 1000 nM and the IC50 (NRAS G12C) was 100 to 1000 nM.

With `CCn1c(-c2cccnc2[C@H](C)OC)c2c3cc(ccc31)-c1cccc(c1)C[C@H](NC(=O)CCOC1CN(C(=O)C#CC(C)(C)N(C)C)C1)C(=O)N1CCC[C@H](N1)C(=O)OCC(C)(C)C2` (atropisomer, axis not shown) [Compound A448] the IC50 (K-Ras G12C; [1]) was 10 to 100 nM and the IC50 (NRAS G12C) was 10 to 100 nM.

`CCn1c(-c2cccnc2[C@H](C)OC)c2c3cc(ccc31)N1CCC[C@@H](C[C@H](NC(=O)[C@H](C(C)C)N(C)C(=O)[C@H]3CCN(C(=O)C#CC(C)(C)N4CCC4)C3)C(=O)N3CCC[C@H](N3)C(=O)OCC(C)(C)C2)C1` (atropisomer, axis not shown) [Compound A617] gave an IC50 (K-Ras G12C; [1]) of 10 to 100 nM and an IC50 (NRAS G12C) of 10 to 100 nM.

From patent EP4806900A2, “RAS INHIBITORS” (Revolution Medicines, Inc., priority 2019, dated 2021)
